For 40 sequences, binding signal results are on record in article PMC12820563, “FoxP3 forms a head-to-head dimer in vivo and stabilizes its multimerization on adjacent microsatellites”.

This is one part of the list.

For the test, the target named is T1, MBP-FoxP1dN (Mus musculus, UniProt P58462 326-579).
T1 sequence: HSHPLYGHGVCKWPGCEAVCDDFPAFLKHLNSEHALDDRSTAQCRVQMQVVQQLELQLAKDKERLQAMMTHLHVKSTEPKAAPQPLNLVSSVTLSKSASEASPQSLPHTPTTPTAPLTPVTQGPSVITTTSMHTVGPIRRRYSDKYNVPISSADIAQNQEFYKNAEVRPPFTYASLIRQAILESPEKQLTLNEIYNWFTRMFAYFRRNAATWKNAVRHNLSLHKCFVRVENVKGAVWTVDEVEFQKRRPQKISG
The test can be described thus: PD-seq (MBP pull-down with sequencing); 20 mM Tris-HCl pH 7.5, 100 mM NaCl, 1.5 mM MgCl2, 0.4 uM protein, 0.1 uM dsDNA library, 30 min, room temperature, amylose pull-down; high values mean tight binding. The following applies: protein: recombinant; tags: His6-MBP; chain copies: 2; dsDNA, one strand shown. The procedure, abridged: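 E. coli-expressed mouse FoxP3 or FoxP1 fragment, N-terminus removed and tagged with His6-MBP, was used at 0.4 µM against 0.1 µM of a Klenow-filled degenerate double-stranded DNA library. After 30 min at room temperature in Tris pH 7.5 buffer with NaCl and MgCl2, complexes were pulled down on amylose resin and washed three times. Binding is pull-down over input reads-per-million enrichment from pooled replicates of the proteinase K-released, PCR-barcoded, Illumina-sequenced DNA.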
With “GATGATTGTTCTCCCAGCTGATGAATTTGTGTGTTCGAGTAAACAAATTTTCCTAATCTTTCTGTTCAAGCGCCATCTAC”, the binding signal is 1.59 RPM ratio (pull-down/input).

As to “GATGATTGTTCTCCCAGCTGATGAATTGTAATGCTCGAGTAAACAAATTTTCCTAATCTTTCTGTTCAAGCGCCATCTAC”, the binding signal was 1.15 RPM ratio (pull-down/input).

In the case of “GATGATTGTTCTCCCAGCTGATGAATTAAAGACCTCGAGTAAACAAATTTTCCTAATCTTTCTGTTCAAGCGCCATCTAC”, the binding signal is 0.801 RPM ratio (pull-down/input).

Consider “GATGATTGTTCTCCCAGCTGATGAATTCTGACACTCGAGTAAACAAATTTTCCTAATCTTTCTGTTCAAGCGCCATCTAC”, for which the binding signal was 0.866 RPM ratio (pull-down/input).

For “GATGATTGTTCTCCCAGCTGATGAATTAGAGACGTCGAGTAAACAAATTTTCCTAATCTTTCTGTTCAAGCGCCATCTAC”, the binding signal is 0.834 RPM ratio (pull-down/input).

With “GATGATTGTTCTCCCAGCTGATGAATTATCGTAGTCGAGTAAACAAATTTTCCTAATCTTTCTGTTCAAGCGCCATCTAC”, the binding signal is 1.03 RPM ratio (pull-down/input).

As for “GATGATTGTTCTCCCAGCTGATGAATTCCCCCGTTCGAGTAAACAAATTTTCCTAATCTTTCTGTTCAAGCGCCATCTAC”, the binding signal is 0.907 RPM ratio (pull-down/input).

On to “GATGATTGTTCTCCCAGCTGATGAATTTCAGACATCGAGTAAACAAATTTTCCTAATCTTTCTGTTCAAGCGCCATCTAC”, for which the binding signal is 0.945 RPM ratio (pull-down/input).

“GATGATTGTTCTCCCAGCTGATGAATTCCCCCGCTCGAGTAAACAAATTTTCCTAATCTTTCTGTTCAAGCGCCATCTAC”: the binding signal is 0.785 RPM ratio (pull-down/input).

With “GATGATTGTTCTCCCAGCTGATGAATTAGACCCGTCGAGTAAACAAATTTTCCTAATCTTTCTGTTCAAGCGCCATCTAC”, the binding signal is 0.868 RPM ratio (pull-down/input).

Regarding “GATGATTGTTCTCCCAGCTGATGAATTCCCATCCTCGAGTAAACAAATTTTCCTAATCTTTCTGTTCAAGCGCCATCTAC”, the binding signal is 0.815 RPM ratio (pull-down/input).

Consider “GATGATTGTTCTCCCAGCTGATGAATTGGCGAGTTCGAGTAAACAAATTTTCCTAATCTTTCTGTTCAAGCGCCATCTAC”, for which the binding signal was 0.839 RPM ratio (pull-down/input).

In the case of “GATGATTGTTCTCCCAGCTGATGAATTTGTGAACTCGAGTAAACAAATTTTCCTAATCTTTCTGTTCAAGCGCCATCTAC”, the binding signal is 1.09 RPM ratio (pull-down/input).

Turning to “GATGATTGTTCTCCCAGCTGATGAATTACTAGTCTCGAGTAAACAAATTTTCCTAATCTTTCTGTTCAAGCGCCATCTAC”, the binding signal was 0.971 RPM ratio (pull-down/input).

With “GATGATTGTTCTCCCAGCTGATGAATTGTTTTCCTCGAGTAAACAAATTTTCCTAATCTTTCTGTTCAAGCGCCATCTAC”, the binding signal is 2.36 RPM ratio (pull-down/input).

For the sequence “GATGATTGTTCTCCCAGCTGATGAATTGGACATGTCGAGTAAACAAATTTTCCTAATCTTTCTGTTCAAGCGCCATCTAC”, the binding signal was 0.895 RPM ratio (pull-down/input).

“GATGATTGTTCTCCCAGCTGATGAATTCAGCCCCTCGAGTAAACAAATTTTCCTAATCTTTCTGTTCAAGCGCCATCTAC”: the binding signal was 0.728 RPM ratio (pull-down/input).

Turning to “GATGATTGTTCTCCCAGCTGATGAATTACTTTCCTCGAGTAAACAAATTTTCCTAATCTTTCTGTTCAAGCGCCATCTAC”, the binding signal is 1.02 RPM ratio (pull-down/input).

Regarding “GATGATTGTTCTCCCAGCTGATGAATTGTGAGACTCGAGTAAACAAATTTTCCTAATCTTTCTGTTCAAGCGCCATCTAC”, the binding signal was 1.08 RPM ratio (pull-down/input).

Regarding “GATGATTGTTCTCCCAGCTGATGAATTGACGGAATCGAGTAAACAAATTTTCCTAATCTTTCTGTTCAAGCGCCATCTAC”, the binding signal was 1.12 RPM ratio (pull-down/input).

“GATGATTGTTCTCCCAGCTGATGAATTGATCAATTCGAGTAAACAAATTTTCCTAATCTTTCTGTTCAAGCGCCATCTAC”: the binding signal was 1.26 RPM ratio (pull-down/input).

Regarding “GATGATTGTTCTCCCAGCTGATGAATTCCACACGTCGAGTAAACAAATTTTCCTAATCTTTCTGTTCAAGCGCCATCTAC”, the binding signal was 0.866 RPM ratio (pull-down/input).

As to “GATGATTGTTCTCCCAGCTGATGAATTGTGCGGGTCGAGTAAACAAATTTTCCTAATCTTTCTGTTCAAGCGCCATCTAC”, the binding signal is 0.888 RPM ratio (pull-down/input).

Turning to “GATGATTGTTCTCCCAGCTGATGAATTTCGATGTTCGAGTAAACAAATTTTCCTAATCTTTCTGTTCAAGCGCCATCTAC”, the binding signal was 0.99 RPM ratio (pull-down/input).

Take “GATGATTGTTCTCCCAGCTGATGAATTGGCGGTGTCGAGTAAACAAATTTTCCTAATCTTTCTGTTCAAGCGCCATCTAC”: the binding signal is 0.835 RPM ratio (pull-down/input).

For “GATGATTGTTCTCCCAGCTGATGAATTTGACGGTTCGAGTAAACAAATTTTCCTAATCTTTCTGTTCAAGCGCCATCTAC”, the binding signal is 0.839 RPM ratio (pull-down/input).

Turning to “GATGATTGTTCTCCCAGCTGATGAATTATTCATTTCGAGTAAACAAATTTTCCTAATCTTTCTGTTCAAGCGCCATCTAC”, the binding signal is 1.11 RPM ratio (pull-down/input).

With “GATGATTGTTCTCCCAGCTGATGAATTCGGCGAGTCGAGTAAACAAATTTTCCTAATCTTTCTGTTCAAGCGCCATCTAC”, the binding signal is 0.786 RPM ratio (pull-down/input).

On to “GATGATTGTTCTCCCAGCTGATGAATTCGCGGAGTCGAGTAAACAAATTTTCCTAATCTTTCTGTTCAAGCGCCATCTAC”, for which the binding signal was 0.761 RPM ratio (pull-down/input).

Regarding “GATGATTGTTCTCCCAGCTGATGAATTGATGACTTCGAGTAAACAAATTTTCCTAATCTTTCTGTTCAAGCGCCATCTAC”, the binding signal was 0.994 RPM ratio (pull-down/input).

For the sequence “GATGATTGTTCTCCCAGCTGATGAATTTTCTATATCGAGTAAACAAATTTTCCTAATCTTTCTGTTCAAGCGCCATCTAC”, the binding signal was 0.994 RPM ratio (pull-down/input).

Consider “GATGATTGTTCTCCCAGCTGATGAATTTTTACAGTCGAGTAAACAAATTTTCCTAATCTTTCTGTTCAAGCGCCATCTAC”, for which the binding signal is 0.958 RPM ratio (pull-down/input).

With “GATGATTGTTCTCCCAGCTGATGAATTAGTTCTGTCGAGTAAACAAATTTTCCTAATCTTTCTGTTCAAGCGCCATCTAC”, the binding signal was 0.873 RPM ratio (pull-down/input).

With “GATGATTGTTCTCCCAGCTGATGAATTGCGGCCGTCGAGTAAACAAATTTTCCTAATCTTTCTGTTCAAGCGCCATCTAC”, the binding signal was 0.964 RPM ratio (pull-down/input).

For the sequence “GATGATTGTTCTCCCAGCTGATGAATTAAGCTTTTCGAGTAAACAAATTTTCCTAATCTTTCTGTTCAAGCGCCATCTAC”, the binding signal is 0.971 RPM ratio (pull-down/input).

Turning to “GATGATTGTTCTCCCAGCTGATGAATTCGCGAGTTCGAGTAAACAAATTTTCCTAATCTTTCTGTTCAAGCGCCATCTAC”, the binding signal was 0.823 RPM ratio (pull-down/input).

In the case of “GATGATTGTTCTCCCAGCTGATGAATTCATAGCGTCGAGTAAACAAATTTTCCTAATCTTTCTGTTCAAGCGCCATCTAC”, the binding signal was 1.02 RPM ratio (pull-down/input).

“GATGATTGTTCTCCCAGCTGATGAATTCCTCCTCTCGAGTAAACAAATTTTCCTAATCTTTCTGTTCAAGCGCCATCTAC”: the binding signal is 0.88 RPM ratio (pull-down/input).

Turning to “GATGATTGTTCTCCCAGCTGATGAATTTAGAGTGTCGAGTAAACAAATTTTCCTAATCTTTCTGTTCAAGCGCCATCTAC”, the binding signal is 0.972 RPM ratio (pull-down/input).

Regarding “GATGATTGTTCTCCCAGCTGATGAATTACGGAACTCGAGTAAACAAATTTTCCTAATCTTTCTGTTCAAGCGCCATCTAC”, the binding signal was 0.99 RPM ratio (pull-down/input).
